Out of some 48,000 compounds screened, about 550 (1.1%) were called active. Another 4% or so got no clear call; they are omitted. No stated cut-off is given here; in the data, active means potency below about 15 µM; inconclusive means mostly about 16 µM to 33 µM; inactive means weaker than that. Some of the results follow.
Target: Lysosomal acid glucosylceramidase (Homo sapiens) (UniProt P04062)
Experiment: Glucocerebrosidase;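 further: the screen sought inhibitors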
Conditions: purified enzyme, resorufin glucoside fluorescence (screen aimed at inhibitors), 20 min
Method in brief: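 Compounds titrated against 0.2 nM normal enzyme, 30 uM resorufin beta-D-glucopyranoside substrate, citrate/phosphate buffer with taurocholate and tween-20, pH 5.9. Reaction ran 20 min at room temperature; fluorescence (Ex 548/Em 600) gave AC50.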
Potency means the concentration at half of the fitted maximal effect.

Sequence of UniProt P04062 (P04062 whole entry, looked up): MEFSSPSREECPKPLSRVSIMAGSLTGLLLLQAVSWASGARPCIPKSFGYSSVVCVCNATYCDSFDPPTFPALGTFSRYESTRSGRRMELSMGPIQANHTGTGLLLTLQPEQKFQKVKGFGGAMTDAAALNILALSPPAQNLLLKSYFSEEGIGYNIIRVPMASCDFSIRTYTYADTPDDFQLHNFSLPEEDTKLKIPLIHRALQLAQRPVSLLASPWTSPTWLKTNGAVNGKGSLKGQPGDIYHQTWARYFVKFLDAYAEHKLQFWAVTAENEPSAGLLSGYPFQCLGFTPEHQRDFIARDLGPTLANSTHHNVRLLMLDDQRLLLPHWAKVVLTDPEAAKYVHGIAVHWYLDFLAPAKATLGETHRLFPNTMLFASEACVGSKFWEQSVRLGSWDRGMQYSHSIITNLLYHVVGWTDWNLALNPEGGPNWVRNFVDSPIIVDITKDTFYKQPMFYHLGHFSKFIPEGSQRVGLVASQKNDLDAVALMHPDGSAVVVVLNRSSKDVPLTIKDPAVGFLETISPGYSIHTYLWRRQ

Potency, inactive:
CCn1c2ccccc2c2nnc(SCC(=O)NCc3cccs3)nc21 > 76.9 µM
COc1ccc(S(=O)(=O)NC2CC(C)(C)NC(C)(C)C2)c(C)c1C > 76.9 µM
CCOC(=O)N1CCN(C(=O)c2ccc3nc(N4CCC(C)CC4)sc3c2)CC1 > 76.9 µM
COc1ccc(C(=O)CSc2nnc(-c3ccco3)n2C)cc1 > 76.9 µM
COc1ccc(-c2cc3nc(C)cc(C)n3n2)c(OC)c1 > 76.9 µM
O=C(CC1CCCCC1)OCn1nnc2ccccc2c1=O > 76.9 µM
Cc1nc(SCC(=O)N2CCOCC2)c2ccsc2n1 > 76.9 µM
Cc1ccc(S(=O)(=O)n2nc(OC(=O)c3ccco3)cc2N)cc1 > 76.9 µM
COc1ccc(C(=O)N2CCCC(c3nc(-c4cccs4)no3)C2)cc1OC (configuration not stated) > 76.9 µM
O=C(Cn1cccc1)N1CCN(C(c2ccccc2)c2ccccc2)CC1 > 76.9 µM
Cc1cc(=O)[nH]c(SCc2nc3ccccc3n2Cc2ccccc2)n1 > 76.9 µM
Clc1ccc2c(c1)c1ccccc1n2CN1CCOCC1 > 76.9 µM
CC(C)OC(=O)CSc1nnc(-c2ccc(C(C)(C)C)cc2)n1N > 76.9 µM
FC(F)(F)c1nnc2sc(-c3ccco3)nn12 > 76.9 µM
CCNc1nc(C)nc2c1oc1ccccc12 > 76.9 µM
CS/C(=N\S(=O)(=O)c1cccs1)NC(=O)CSc1nc2ccccc2s1 > 76.9 µM
CCOc1ccccc1OCCCC(=O)N1CCN(S(=O)(=O)c2cccc(F)c2)CC1 > 76.9 µM
CCOc1ccc(NC(=O)c2nnn(CC(=O)Nc3ccccc3OCC)c2N)cc1 > 76.9 µM
O=C(Cn1cnc2ccccc2c1=O)NCC(=O)N1CCN(Cc2ccc3c(c2)OCO3)CC1 > 76.9 µM
Cc1cccc(N2CCN(S(=O)(=O)c3ccc4c(c3)CCN4C(=O)CCC(=O)O)CC2)c1C > 76.9 µM
C=CCNc1nnc(C)c2ccccc12 > 76.9 µM
CS(=O)(=O)N1CCC(C(=O)Nc2c(F)cccc2F)CC1 > 76.9 µM
C=CCn1c(CCCNC(=O)CCC)nc2ccccc21 > 76.9 µM
Cn1c(=O)c2c(ncn2CC(O)CNc2ccc(Br)cc2)n(C)c1=O (configuration not stated) > 76.9 µM
COc1ccc(CC2C(=O)OC(C)(C)OC2=O)cc1 > 76.9 µM
CCSc1sccc1C1C(C#N)=C(N)N(c2cccnc2)C2=C1C(=O)CCC2 (configuration not stated) > 76.9 µM
COCCn1c(C2CCCCC2)nc2sc3ccccc3c(=O)c2c1=O > 76.9 µM
O=C(NCc1cccs1)C1CCCN1C(=O)NC1CCCCC1 (configuration not stated) > 76.9 µM
C/C(N)=C(/C#N)C(=O)CSc1nc(C2CCCCC2)n(-c2ccccc2)n1 > 76.9 µM
CCN1CCC(NC(=O)c2cc(OC)c(OC)cc2OC)CC1 > 76.9 µM
Cn1c(C(=O)N2CCCC(C(=O)NCCCSC3CCCCC3)C2)cc2sccc21 (configuration not stated)
O=C(c1cccc(F)c1)N1C2C=CC(C2)C1(C(F)(F)F)C(F)(F)F (configuration not stated) > 76.9 µM
O=C(COC(=O)c1ccccc1C(=O)c1ccccc1)c1ccco1 > 76.9 µM
O=C(CSc1cccc[n+]1[O-])c1cc2ccccc2o1 > 76.9 µM
COCCN1CCn2c(nc3cc(NC(=O)c4ccc(OC)cc4)ccc32)C1
COc1ccc(C2C(C(=O)Nc3ccccc3OC)=C(C)Nc3nnnn32)c(OC)c1 (configuration not stated) > 76.9 µM
CC(=O)N1CCN(C(=O)Nc2cccc(C(F)(F)F)c2)CC1 > 76.9 µM
CCS(=O)(=O)c1nc2ccccc2n1CC(=O)N1CCOCC1 > 76.9 µM
O=C(Nc1ccccc1C(=O)OCn1nnc2ccccc2c1=O)c1ccco1
O=C(CC(Nc1ccc(F)cc1)C(=O)O)c1ccccc1 (configuration not stated) > 76.9 µM
O=C(NC1CC1)c1ccc2c(c1)ncn2C1CCCC1 > 76.9 µM
CCC(C)c1ccc2oc(-c3ccc(NC(=O)Cn4cnc5c(=O)n(C)c(=O)n(C)c54)cc3)nc2c1 (configuration not stated) > 76.9 µM
COc1cccc2cc(NC(=O)C3CCCCC3)c(=O)oc12 > 76.9 µM
CCCCOc1nc2ccccc2nc1C(C#N)S(=O)(=O)c1ccccc1 (configuration not stated) > 76.9 µM
CN(C1CCS(=O)(=O)C1)S(=O)(=O)c1ccc(N2CCCC2=O)cc1 (configuration not stated) > 76.9 µM
CCC(=O)Nc1ccc(NC(=O)c2c(C)nc3ccccn23)cc1 > 76.9 µM
CC(=O)OC1CC(C)(C)N(OC(=O)CCCN2C(=O)c3ccccc3C2=O)C(C)(C)C1 > 76.9 µM
O=C(CCN1CCCCC1)NCNC(=O)CCN1CCCCC1 > 76.9 µM
CCOC(=O)/N=C(/NC(=O)Nc1ccc(C(=O)OCC)cc1)OC > 76.9 µM
Cc1cc(C#N)c2ccccc2n1 > 76.9 µM
CC(=O)Nc1ccc(NC(=O)CN2CCCC(C)C2)c(Cl)c1 (configuration not stated) > 76.9 µM
O=c1c(-c2ccc3c(c2)OCCO3)coc2cc(O)cc(O)c12 > 76.9 µM
COC(=O)CC1Oc2ccccc2N(Cc2ccc(C)cc2)C1=O (configuration not stated) > 76.9 µM
CSc1nnc(Cc2cc(=O)[nH]c(=O)[nH]2)n1-c1cc(C)ccc1C > 76.9 µM
CCn1c(SCC(=O)N2c3ccccc3CCc3ccccc32)nc2c1c(=O)n(C)c(=O)n2C > 76.9 µM
COc1ccc(S(=O)(=O)NC(CC(=O)NCC2CCCO2)c2ccco2)cc1 (configuration not stated) > 76.9 µM
CC1CCN(C(=O)c2ccc(N(C)S(C)(=O)=O)cc2)CC1 > 76.9 µM
CN1C(=O)CSc2ccc(NC(=O)N3CCc4ccccc43)cc21 > 76.9 µM
COc1cc(C2C(C(C)=O)=C(O)C(=O)N2CCc2c[nH]c3ccccc23)ccc1O (configuration not stated) > 76.9 µM
C=CCSc1nc(N)c(C#N)c(-c2ccc(C)cc2)c1C#N > 76.9 µM
Cc1ccc(CCN2CC(C(=O)NCCN3CCOCC3)CC2=O)cc1 (configuration not stated) > 76.9 µM
C=Cn1nc(C)c2ccccc2c1=O > 76.9 µM
C=CCn1c(SC2CCOC2=O)nc2scc(C3CC3)c2c1=O (configuration not stated) > 76.9 µM
COc1ccc(OC)c(NC(=O)CN2CCN(C(=O)c3ccco3)CC2)c1 > 76.9 µM
Cc1ccc(N(C=NC#N)CC(=O)N2CCN(c3ccccc3)CC2)cc1 > 76.9 µM
OCc1nc2ccccc2n1C/C=C/c1ccccc1 > 76.9 µM
O=C(CN(Cc1ccccc1F)C(=O)c1ccco1)NCc1ccc(F)cc1 > 76.9 µM
Cc1onc(-c2ccccc2)c1C(=O)OCC(=O)Nc1ccc2c(c1)OCO2 > 76.9 µM
CCOC(=O)c1ccc(Nc2ncnc3c2cnn3C)cc1
Cn1c(-c2cccc(Br)c2)cnc1NCc1cccnc1 > 76.9 µM
COC(=O)Cc1[nH]nc2c1C(C1C=CCCC1)C(C#N)=C(N)O2 (configuration not stated) > 76.9 µM
Oc1ccc(CN2CCN(Cc3ccccc3)CC2)c2cccnc12 > 76.9 µM
COc1ccc(NC(=O)Cn2nc3n(c2=S)CCC3)cc1 > 76.9 µM
COC(=O)COc1cccc(NS(=O)(=O)c2ccc(NC(C)=O)cc2)c1 > 76.9 µM
COc1ccccc1C(=O)Nc1ccccc1C(=O)N1CCCC1 > 76.9 µM
C=CCSc1nsc(N)n1 > 76.9 µM
O=C1c2ccccc2C(=O)N1CCCP(=O)(O)CCc1ccccc1 > 76.9 µM
COc1cccc(-c2cc(C(=O)Nc3ccccc3SC)no2)c1 > 76.9 µM
c1coc(CNc2c3c(nc4ncnn24)CCC3)c1 > 76.9 µM
CCOC(=O)N1CCN(C(=O)c2ccc3c(c2)NC(=O)C(N2CCOCC2)S3)CC1 (configuration not stated) > 76.9 µM
Cn1cc(CNC(=O)COc2ccc(Cl)cc2Cl)cn1 > 76.9 µM
CC1CC(C)CN(c2ncc3c(n2)CC(c2ccccc2)CC3=O)C1 (configuration not stated) > 76.9 µM
O=C1NC(Cc2c[nH]c3ccccc23)C(=O)N1CCOc1ccc(F)cc1 (configuration not stated) > 76.9 µM
COCCCn1cnc2c(c1=O)c1nc3ccccc3nc1n2-c1ccccc1 > 76.9 µM
CCN(CC)C(=O)CSc1nnc(CCNC(=O)OC(C)(C)C)o1 > 76.9 µM
COc1ccc2cc3cc(C(=O)Nc4ccccc4N4CCN(C)CC4)oc3nc2c1 > 76.9 µM
CC(=O)c1ccccc1Oc1nc(CN2CCOCC2)nc2scc(-c3cccs3)c12 > 76.9 µM
COc1cccc(Oc2nc3ncn(Cc4ccccc4)c3c(=O)n2C)c1 > 76.9 µM
CCCOC(=O)c1cc(=O)[nH]c2ccccc12 > 76.9 µM
Cc1ccc(C)c(NC(=O)C2CC(Cl)=CCC2C(=O)O)c1 (configuration not stated) > 76.9 µM
Cn1c(=O)[nH]c(=O)c2c1nc(N1CCNCC1)n2CCOc1ccccc1 > 76.9 µM
N#CCCSc1ncnc2c1oc1ccccc12 > 76.9 µM

— PubChem BioAssay AID360 (National Center for Advancing Translational Sciences (NCATS), 2006)
